From PubChem BioAssay (NCI)
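Values below derive from 48-hour exposures of cells grown in 96-well plates, with endpoints linearly interpolated between the two concentrations bracketing the appropriate inhibition level. TGI: total growth inhibition.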

Experiments:
Assay in all cases: NCI tumour cell line growth inhibition, 48 h
MDA-MB-231 breast = system: MDA-MB-231 breast
LOX IMVI melanoma = system: LOX IMVI melanoma
SF-268 CNS = system: SF-268 CNS
DLD-1 colon = system: DLD-1 colon
ACHN renal = system: ACHN renal
RXF 393 renal = system: RXF 393 renal
DU-145 prostate = system: DU-145 prostate
CCRF-CEM leukemia = system: CCRF-CEM leukemia
RPMI-8226 leukemia = system: RPMI-8226 leukemia
T-47D breast = system: T-47D breast
M14 melanoma = system: M14 melanoma
HOP-92 NSCLC = system: HOP-92 NSCLC
EKVX NSCLC = system: EKVX NSCLC
MOLT-4 leukemia = system: MOLT-4 leukemia
K-562 leukemia = system: K-562 leukemia
MCF7 breast = system: MCF7 breast
OVCAR-8 ovarian = system: OVCAR-8 ovarian
786-0 renal = system: 786-0 renal
A498 renal = system: A498 renal
XF 498 CNS = system: XF 498 CNS
SW-620 colon = system: SW-620 colon
SN12C renal = system: SN12C renal
SR leukemia = system: SR leukemia
BT-549 breast = system: BT-549 breast
OVCAR-5 ovarian = system: OVCAR-5 ovarian
LXFL 529 NSCLC = system: LXFL 529 NSCLC
NCI-H226 lung = system: NCI-H226 lung
UACC-62 melanoma = system: UACC-62 melanoma
A549 NSCLC = system: A549 NSCLC
PC-3 prostate = system: PC-3 prostate
U251 CNS = system: U251 CNS
DMS 273 small cell lung = system: DMS 273 small cell lung
SK-MEL-2 melanoma = system: SK-MEL-2 melanoma
SF-295 CNS = system: SF-295 CNS
SNB-75 CNS = system: SNB-75 CNS
SK-OV-3 ovarian = system: SK-OV-3 ovarian
TK-10 renal = system: TK-10 renal
HOP-62 NSCLC = system: HOP-62 NSCLC
HCT-116 colon = system: HCT-116 colon
CAKI-1 renal = system: CAKI-1 renal
UO-31 renal = system: UO-31 renal
KM12 colon = system: KM12 colon
MALME-3M melanoma = system: MALME-3M melanoma
COLO 205 colon = system: COLO 205 colon
SF-539 CNS = system: SF-539 CNS
IGROV1 ovarian = system: IGROV1 ovarian
HCC-2998 colon = system: HCC-2998 colon
OVCAR-4 ovarian = system: OVCAR-4 ovarian
SK-MEL-5 melanoma = system: SK-MEL-5 melanoma
NCI-H23 lung = system: NCI-H23 lung
SK-MEL-28 melanoma = system: SK-MEL-28 melanoma
HL-60(TB) leukemia = system: HL-60(TB) leukemia
HT29 colon = system: HT29 colon
HOP-18 NSCLC = system: HOP-18 NSCLC
DMS 114 small cell lung = system: DMS 114 small cell lung
OVCAR-3 ovarian = system: OVCAR-3 ovarian
SNB-19 CNS = system: SNB-19 CNS
MDA-MB-435 = system: MDA-MB-435
MDA-N = system: MDA-N
M19-MEL melanoma = system: M19-MEL melanoma
KM20L2 colon = system: KM20L2 colon
HCT-15 colon = system: HCT-15 colon
NCI-H460 lung = system: NCI-H460 lung
UACC-257 melanoma = system: UACC-257 melanoma
NCI/ADR-RES ovarian = system: NCI/ADR-RES ovarian

COc1c(O)cc2c(c1OC)-c1ccc(SC)c(=O)cc1C(NC(C)=O)CC2 (stereo not given)
TGI (MDA-MB-231 breast): > 100 µM
TGI (LOX IMVI melanoma): > 100 µM
TGI (SF-268 CNS): > 100 µM
TGI (DLD-1 colon): > 100 µM
TGI (ACHN renal): > 100 µM
TGI (RXF 393 renal): 2.87 µM
TGI (DU-145 prostate): 0.112 µM
TGI (CCRF-CEM leukemia): 31.6 µM
TGI (RPMI-8226 leukemia): 77.7 µM
TGI (T-47D breast): > 100 µM
TGI (M14 melanoma): 55 µM
TGI (HOP-92 NSCLC): 11.4 µM
TGI (EKVX NSCLC): > 100 µM
TGI (MOLT-4 leukemia): > 100 µM
TGI (K-562 leukemia): 35.9 µM
TGI (MCF7 breast): > 100 µM
TGI (OVCAR-8 ovarian): 28.7 µM
TGI (786-0 renal): > 100 µM
TGI (A498 renal): 8.55 µM
TGI (XF 498 CNS): > 100 µM
TGI (SW-620 colon): > 100 µM
TGI (SN12C renal): > 100 µM
TGI (SR leukemia): 0.844 µM
TGI (BT-549 breast): 4.64 µM
TGI (OVCAR-5 ovarian): > 100 µM
TGI (LXFL 529 NSCLC): > 100 µM
TGI (NCI-H226 lung): 1.2 µM
TGI (UACC-62 melanoma): > 100 µM
TGI (A549 NSCLC): > 100 µM
TGI (PC-3 prostate): > 100 µM
TGI (U251 CNS): 13.4 µM
TGI (DMS 273 small cell lung): > 100 µM
TGI (SK-MEL-2 melanoma): 4.12 µM
TGI (SF-295 CNS): 0.758 µM
TGI (SNB-75 CNS): 18.6 µM
TGI (SK-OV-3 ovarian): 12.2 µM
TGI (TK-10 renal): 96.4 µM
TGI (HOP-62 NSCLC): > 100 µM
TGI (HCT-116 colon): 0.935 µM
TGI (CAKI-1 renal): 47.7 µM
TGI (UO-31 renal): > 100 µM
TGI (KM12 colon): 0.145 µM
TGI (MALME-3M melanoma): > 100 µM
TGI (COLO 205 colon): 0.106 µM
TGI (SF-539 CNS): 0.0275 µM
TGI (IGROV1 ovarian): > 100 µM
TGI (HCC-2998 colon): 4.11 µM
TGI (OVCAR-4 ovarian): > 100 µM
TGI (SK-MEL-5 melanoma): 0.386 µM
TGI (NCI-H23 lung): 1.77 µM
TGI (SK-MEL-28 melanoma): > 100 µM
TGI (HL-60(TB) leukemia): 0.0175 µM
TGI (HT29 colon): 1.61 µM
TGI (HOP-18 NSCLC): > 100 µM
TGI (DMS 114 small cell lung): 0.014 µM
TGI (OVCAR-3 ovarian): 0.0724 µM
TGI (SNB-19 CNS): > 100 µM
TGI (MDA-MB-435): 0.0235 µM
TGI (MDA-N): 0.272 µM
TGI (M19-MEL melanoma): > 100 µM
TGI (KM20L2 colon): 0.0147 µM
TGI (HCT-15 colon): 26.5 µM
TGI (NCI-H460 lung): 1.33 µM
TGI (UACC-257 melanoma): > 100 µM
TGI (NCI/ADR-RES ovarian): 7.13 µM
